Data: the supplement of paper PMC8728848
Some of the results follow.

How the values were obtained:
Assay in all cases: glycan array binding signal (z-score within array); higher = stronger binding
Details in all cases: glycan notation: IUPAC condensed, linker removed
[1] = target: Glc(b1-6)Glc
In short: (§1)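 The binding signal is a Z-score computed within each array and averaged over linkers. Arrays of the same protein sequence at different concentrations or buffers were also averaged together. Data originate from 3228 arrays in the Consortium for Functional Glycomics database, kept only where the protein sequence was available.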

[2] = target: GlcA(b1-3)Gal
In short: as §1

[3] = target: GlcA(b1-3)GlcNAc
In short: as §1

[4] = target: GlcA(b1-6)Gal
In short: as §1

[5] = target: GlcA3S(b1-3)Gal(b1-4)GlcNAc(b1-2)Man
In short: as §1

[6] = target: GlcA3S(b1-3)Gal(b1-4)GlcNAc(b1-3)Gal(b1-4)Glc
In short: as §1

[7] = target: GlcNAc(a1-3)Gal(b1-4)GlcNAc
In short: as §1

[8] = target: GlcNAc(a1-4)Gal(b1-3)GlcNAc
In short: as §1

[9] = target: GlcNAc(a1-4)Gal(b1-4)GalNAc
In short: as §1

[10] = target: GlcNAc(a1-4)Gal(b1-4)GlcNAc
In short: as §1

[11] = target: GlcNAc(a1-4)Gal(b1-4)GlcNAc(b1-3)Gal(b1-4)Glc
In short: as §1

[12] = target: GlcNAc(a1-4)Gal(b1-4)GlcNAc(b1-3)Gal(b1-4)GlcNAc
In short: as §1

[13] = target: GlcNAc(a1-4)Gal(b1-4)GlcNAc(b1-3)Gal(b1-4)GlcNAc(b1-3)Gal(b1-4)GlcNAc
In short: as §1

[14] = target: GlcNAc(a1-4)Gal(b1-4)GlcNAc(b1-3)Gal(b1-4)[Fuc(a1-3)]GlcNAc(b1-3)Gal(b1-4)[Fuc(a1-3)]GlcNAc
In short: as §1

[15] = target: GlcNAc(a1-6)Gal(b1-4)GlcNAc
In short: as §1

[16] = target: GlcNAc(b1-2)Gal(b1-3)GalNAc
In short: as §1

[17] = target: GlcNAc(b1-2)Man(a1-3)[GlcNAc(b1-2)Man(a1-6)]Man(b1-4)GlcNAc(b1-4)GlcNAc
In short: as §1

[18] = target: GlcNAc(b1-2)Man(a1-3)[GlcNAc(b1-2)Man(a1-6)]Man(b1-4)GlcNAc(b1-4)[Fuc(a1-6)]GlcNAc
In short: as §1

[19] = target: GlcNAc(b1-2)Man(a1-3)[GlcNAc(b1-4)][GlcNAc(b1-2)Man(a1-6)]Man(b1-4)GlcNAc(b1-4)GlcNAc
In short: as §1

[20] = target: GlcNAc(b1-2)Man(a1-3)[GlcNAc(b1-4)][GlcNAc(b1-2)Man(a1-6)]Man(b1-4)GlcNAc(b1-4)[Fuc(a1-6)]GlcNAc
In short: as §1

[21] = target: GlcNAc(b1-2)[GlcNAc(b1-4)]Man(a1-3)[GlcNAc(b1-2)Man(a1-6)]Man(b1-4)GlcNAc(b1-4)GlcNAc
In short: as §1

[22] = target: GlcNAc(b1-2)[GlcNAc(b1-4)]Man(a1-3)[GlcNAc(b1-4)][GlcNAc(b1-2)Man(a1-6)]Man(b1-4)GlcNAc(b1-4)GlcNAc
In short: as §1

[23] = target: GlcNAc(b1-2)[GlcNAc(b1-4)]Man(a1-3)[GlcNAc(b1-4)][GlcNAc(b1-2)[GlcNAc(b1-6)]Man(a1-6)]Man(b1-4)GlcNAc(b1-4)GlcNAc
In short: as §1

[24] = target: GlcNAc(b1-2)[GlcNAc(b1-4)]Man(a1-3)[GlcNAc(b1-4)][GlcNAc(b1-2)[GlcNAc(b1-6)]Man(a1-6)]Man(b1-4)GlcNAc(b1-4)[Fuc(a1-6)]GlcNAc
In short: as §1

[25] = target: GlcNAc(b1-2)[GlcNAc(b1-6)]Man(a1-6)[GlcNAc(b1-2)Man(a1-3)]Man(b1-4)GlcNAc(b1-4)GlcNAc
In short: as §1

[26] = target: GlcNAc(b1-2)[GlcNAc(b1-6)]Man(a1-6)[GlcNAc(b1-2)Man(a1-3)]Man(b1-4)GlcNAc(b1-4)[Fuc(a1-6)]GlcNAc
In short: as §1

[27] = target: GlcNAc(b1-2)[GlcNAc(b1-6)]Man(a1-6)[GlcNAc(b1-4)][GlcNAc(b1-2)Man(a1-3)]Man(b1-4)GlcNAc(b1-4)GlcNAc
In short: as §1

[28] = target: GlcNAc(b1-3)Fuc
In short: as §1

[29] = target: GlcNAc(b1-3)Gal
In short: as §1

[30] = target: GlcNAc(b1-3)Gal(b1-3)GalNAc
In short: as §1

[31] = target: GlcNAc(b1-3)Gal(b1-4)Glc
In short: as §1

[32] = target: GlcNAc(b1-3)Gal(b1-4)GlcNAc
In short: as §1

[33] = target: GlcNAc(b1-3)Gal(b1-4)GlcNAc(b1-2)Man(a1-3)[GlcNAc(b1-3)Gal(b1-4)GlcNAc(b1-2)Man(a1-6)]Man(b1-4)GlcNAc(b1-4)GlcNAc
In short: as §1

[34] = target: GlcNAc(b1-3)Gal(b1-4)GlcNAc(b1-2)Man(a1-3)[GlcNAc(b1-3)Gal(b1-4)GlcNAc(b1-2)Man(a1-6)]Man(b1-4)GlcNAc(b1-4)[Fuc(a1-6)]GlcNAc
In short: as §1

[35] = target: GlcNAc(b1-3)Gal(b1-4)GlcNAc(b1-2)[GlcNAc(b1-3)Gal(b1-4)GlcNAc(b1-6)]Man(a1-6)[GlcNAc(b1-3)Gal(b1-4)GlcNAc(b1-2)Man(a1-3)]Man(b1-4)GlcNAc(b1-4)GlcNAc
In short: as §1

[36] = target: GlcNAc(b1-3)Gal(b1-4)GlcNAc(b1-3)Gal(b1-4)GlcNAc
In short: as §1

[37] = target: GlcNAc(b1-3)Gal(b1-4)GlcNAc(b1-3)Gal(b1-4)GlcNAc(b1-2)Man(a1-3)[GlcNAc(b1-3)Gal(b1-4)GlcNAc(b1-3)Gal(b1-4)GlcNAc(b1-2)Man(a1-6)]Man(b1-4)GlcNAc(b1-4)GlcNAc
In short: as §1

[38] = target: GlcNAc(b1-3)Gal(b1-4)GlcNAc(b1-3)Gal(b1-4)GlcNAc(b1-2)Man(a1-3)[GlcNAc(b1-3)Gal(b1-4)GlcNAc(b1-3)Gal(b1-4)GlcNAc(b1-2)Man(a1-6)]Man(b1-4)GlcNAc(b1-4)[Fuc(a1-6)]GlcNAc
In short: as §1

[39] = target: GlcNAc(b1-3)Gal(b1-4)GlcNAc(b1-3)Gal(b1-4)GlcNAc(b1-2)[GlcNAc(b1-3)Gal(b1-4)GlcNAc(b1-3)Gal(b1-4)GlcNAc(b1-6)]Man(a1-6)[GlcNAc(b1-3)Gal(b1-4)GlcNAc(b1-3)Gal(b1-4)GlcNAc(b1-2)Man(a1-3)]Man(b1-4)GlcNAc(b1-4)[Fuc(a1-6)]GlcNAc
In short: as §1

[40] = target: GlcNAc(b1-3)Gal(b1-4)GlcNAc(b1-3)Gal(b1-4)GlcNAc(b1-3)Gal(b1-4)GlcNAc(b1-2)Man(a1-3)[GlcNAc(b1-3)Gal(b1-4)GlcNAc(b1-3)Gal(b1-4)GlcNAc(b1-3)Gal(b1-4)GlcNAc(b1-2)Man(a1-6)]Man(b1-4)GlcNAc(b1-4)GlcNAc
In short: as §1

[41] = target: GlcNAc(b1-3)Gal(b1-4)GlcNAc(b1-3)Gal(b1-4)GlcNAc(b1-3)Gal(b1-4)GlcNAc(b1-2)Man(a1-3)[GlcNAc(b1-3)Gal(b1-4)GlcNAc(b1-3)Gal(b1-4)GlcNAc(b1-3)Gal(b1-4)GlcNAc(b1-2)Man(a1-6)]Man(b1-4)GlcNAc(b1-4)[Fuc(a1-6)]GlcNAc
In short: as §1

[42] = target: GlcNAc(b1-3)Gal(b1-4)GlcNAc(b1-3)Gal(b1-4)GlcNAc(b1-3)Gal(b1-4)GlcNAc(b1-2)[GlcNAc(b1-3)Gal(b1-4)GlcNAc(b1-3)Gal(b1-4)GlcNAc(b1-3)Gal(b1-4)GlcNAc(b1-6)]Man(a1-6)[GlcNAc(b1-3)Gal(b1-4)GlcNAc(b1-3)Gal(b1-4)GlcNAc(b1-3)Gal(b1-4)GlcNAc(b1-2)Man(a1-3)]Man(b1-4)GlcNAc(b1-4)[Fuc(a1-6)]GlcNAc
In short: as §1

[43] = target: GlcNAc(b1-3)Gal(b1-4)GlcNAc(b1-3)Gal(b1-4)GlcNAc(b1-3)Gal(b1-4)GlcNAc(b1-3)Gal(b1-4)GlcNAc(b1-2)Man(a1-3)[GlcNAc(b1-3)Gal(b1-4)GlcNAc(b1-3)Gal(b1-4)GlcNAc(b1-3)Gal(b1-4)GlcNAc(b1-3)Gal(b1-4)GlcNAc(b1-2)Man(a1-6)]Man(b1-4)GlcNAc(b1-4)GlcNAc
In short: as §1

[44] = target: GlcNAc(b1-3)Gal(b1-4)GlcNAc(b1-3)Gal(b1-4)GlcNAc(b1-3)Gal(b1-4)GlcNAc(b1-3)Gal(b1-4)GlcNAc(b1-2)Man(a1-3)[GlcNAc(b1-3)Gal(b1-4)GlcNAc(b1-3)Gal(b1-4)GlcNAc(b1-3)Gal(b1-4)GlcNAc(b1-3)Gal(b1-4)GlcNAc(b1-2)Man(a1-6)]Man(b1-4)GlcNAc(b1-4)[Fuc(a1-6)]GlcNAc
In short: as §1

[45] = target: GlcNAc(b1-3)Gal(b1-4)GlcNAc(b1-3)Gal(b1-4)GlcNAc(b1-3)Gal(b1-4)GlcNAc(b1-3)Gal(b1-4)GlcNAc(b1-2)[GlcNAc(b1-3)Gal(b1-4)GlcNAc(b1-3)Gal(b1-4)GlcNAc(b1-3)Gal(b1-4)GlcNAc(b1-3)Gal(b1-4)GlcNAc(b1-6)]Man(a1-6)[GlcNAc(b1-3)Gal(b1-4)GlcNAc(b1-3)Gal(b1-4)GlcNAc(b1-3)Gal(b1-4)GlcNAc(b1-3)Gal(b1-4)GlcNAc(b1-2)Man(a1-3)]Man(b1-4)GlcNAc(b1-4)[Fuc(a1-6)]GlcNAc
In short: as §1

B1: Mermaid3 (Stilbonema majum) (protein)
chain: MGSSHHHHHHSSGLVPRGSHMAASGWLRSPQGTVVKLYRRSLSWSKADEFCKDVDGRLVVDRTADMHLFLIKNVLKEKKSRVWVGLRRTASHSRTWIWSDGTRQNEGDLDANLWLRDEPNDAAGEEECALFMYSPWEKAWGLNDYLCRGGCRNYQFICEKWIR
glycan array binding signal (z-score) [1]: -0.413 | glycan array binding signal (z-score) [2]: -0.815 | glycan array binding signal (z-score) [3]: 1.68 | glycan array binding signal (z-score) [4]: 1.66 | glycan array binding signal (z-score) [5]: -0.389 | glycan array binding signal (z-score) [6]: -0.609 | glycan array binding signal (z-score) [7]: 1.05 | glycan array binding signal (z-score) [8]: -0.713 | glycan array binding signal (z-score) [9]: -0.534 | glycan array binding signal (z-score) [10]: -0.636 | glycan array binding signal (z-score) [11]: -0.717 | glycan array binding signal (z-score) [12]: -0.696 | glycan array binding signal (z-score) [13]: -0.462 | glycan array binding signal (z-score) [14]: 0.107 | glycan array binding signal (z-score) [15]: -0.827 | glycan array binding signal (z-score) [16]: -0.193 | glycan array binding signal (z-score) [17]: -0.276 | glycan array binding signal (z-score) [18]: -0.369 | glycan array binding signal (z-score) [19]: 0.111 | glycan array binding signal (z-score) [20]: -0.468 | glycan array binding signal (z-score) [21]: -0.823 | glycan array binding signal (z-score) [22]: -0.724 | glycan array binding signal (z-score) [23]: -0.781 | glycan array binding signal (z-score) [24]: -0.644 | glycan array binding signal (z-score) [25]: -0.244 | glycan array binding signal (z-score) [26]: -0.517 | glycan array binding signal (z-score) [27]: -0.397 | glycan array binding signal (z-score) [28]: 0.289 | glycan array binding signal (z-score) [29]: -0.533 | glycan array binding signal (z-score) [30]: -0.016 | glycan array binding signal (z-score) [31]: -0.547 | glycan array binding signal (z-score) [32]: -0.487 | glycan array binding signal (z-score) [33]: -0.371 | glycan array binding signal (z-score) [34]: 0.725 | glycan array binding signal (z-score) [35]: 0.509 | glycan array binding signal (z-score) [36]: -0.039 | glycan array binding signal (z-score) [37]: -0.037 | glycan array binding signal (z-score) [38]: 0.262 | glycan array binding signal (z-score) [39]: 0.113 | glycan array binding signal (z-score) [40]: -0.513 | glycan array binding signal (z-score) [41]: 0.681 | glycan array binding signal (z-score) [42]: -0.173 | glycan array binding signal (z-score) [43]: 0.139 | glycan array binding signal (z-score) [44]: -0.316 | glycan array binding signal (z-score) [45]: -0.193
